Measured values published in PubChem BioAssay AID1346428 (National Center for Advancing Translational Sciences (NCATS), 2018).
The whole screen tested about 48,000 compounds, of which about 1,200 (2.5%) were called active. Another 2% or so got no clear call; they are omitted.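 How the source made its calls: active means activation of at least 60% and not above a set upper limit (about 1 call in 100 departs from these limits); inconclusive means activation of 40% to 60%, or above that upper limit; inactive means activation under 40%.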 This is one part of the list.

Each compound was assayed against Probable G-protein coupled receptor 32 (Homo sapiens) (UniProt O75388) (assay: qHTS for Agonists of Human Resolvin D1 Receptor DRV1). Details: CHO-K1 GPR32 beta-arrestin PathHunter luminescence, 90 min; at 76.9 µM; hits give high values; zero percent set by DMSO-only wells.
Chain of UniProt O75388 (O75388 whole entry, looked up, the tested form may be a part): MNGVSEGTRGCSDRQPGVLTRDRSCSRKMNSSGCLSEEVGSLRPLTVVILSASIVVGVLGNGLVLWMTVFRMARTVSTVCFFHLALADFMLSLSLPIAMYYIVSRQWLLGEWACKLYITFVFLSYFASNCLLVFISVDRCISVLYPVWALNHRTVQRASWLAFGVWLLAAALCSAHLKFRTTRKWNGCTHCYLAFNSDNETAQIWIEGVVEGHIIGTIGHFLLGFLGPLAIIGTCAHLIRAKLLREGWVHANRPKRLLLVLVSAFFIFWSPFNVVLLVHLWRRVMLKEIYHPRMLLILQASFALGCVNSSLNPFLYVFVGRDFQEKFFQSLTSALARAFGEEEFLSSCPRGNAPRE
Procedure, shortened: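 PathHunter enzyme-fragment complementation, CHO-K1 GPR32 stable line; 2,500 cells/well, overnight attach; cpd 90 min 37 °C 5% CO2; detection reagent 1 h RT; chemiluminescence. DMSO = EC0.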
In the case of `COc1ccc(N2CCN(C3(c4ccccc4)C(=O)c4ccccc4C3=O)CC2)cc1`, the activation is reported as inactive: 6.66%.
`Cc1ccc(Cl)cc1N(C)C(=O)c1cc2c(Cl)nc3ccccc3c2s1` was tested, and the activation was inactive: 4.21%.
For `N#C/C(=C/c1ccccc1Cl)c1nc2ccccc2c(=O)[nH]1`, the activation was inactive: 2.39%.
With `CCCCCCNC(=O)c1c[nH]c2ccc(S(=O)(=O)N(C)c3ccc(C(C)C)cc3)cc2c1=O` the activation was inactive: -9.31%.
`O=C(C1CCC(Cn2c(=O)c3sccc3n(Cc3cccc(F)c3)c2=O)CC1)N1CCOCC1` (stereo not drawn) was tested, and the activation was inactive: -13.8%.
`CC(=O)Nc1ccc(Nc2nc3c(S(=O)(=O)c4cc(C)ccc4C)nnn3c3ccsc23)cc1` was tested, and the activation was inactive: -15.6%.
`Cc1cc2nn(-c3ccc(F)cc3)nc2cc1NC(=O)c1cccc([N+](=O)[O-])c1C` was tested, and the activation was inactive: 15.1%.
`COc1cccc(OC(=O)CSc2nnc(-c3cccs3)o2)c1` was tested, and the activation was inactive: -5.46%.
For `Cc1[nH]cnc1CN1CCc2c(c3ccccc3n2C)C1=O`, the activation was inactive: 3.13%.
For `COc1ccc(N2C(=O)CSC23C(=O)N(CC(=O)Nc2ccccc2F)c2ccccc23)cc1` (stereo not drawn), the activation was inactive: -4.97%.
`COC(=O)c1ccc(Nc2nc(-c3ccccc3Cl)nc3ccccc23)cc1` was tested, and the activation was inactive: -7.03%.
In the case of `Clc1cccc(-c2nc3ccccn3c2Nc2ccc3c(c2)OCCO3)c1`, the activation is reported as inactive: -7.36%.
With `CC1(C)OC[C@@H](COC(=O)CCc2ccc(OC[C@@H](O)CNCCNC(=O)N3CCOCC3)cc2)O1` the activation was inactive: -1.7%.
`Cc1cc(OC(C)C(=O)N2CCC(c3nc4ccccc4o3)CC2)ccc1Cl` (stereo not drawn) was tested, and the activation was inactive: 32.6%.
With `Cc1ccc(CSCCNC(=O)C2CCN(S(=O)(=O)Cc3ccccc3)CC2)cc1` the activation was inactive: 13.9%.
For `COc1ccccc1NC(=O)CSc1ccc(-c2ccccn2)nn1`, the activation was inactive: 11.8%.
In the case of `Cc1ccc(N(C)C(CNS(=O)(=O)c2ccccc2)c2ccccc2)cc1` (stereo not drawn), the activation is reported as inactive: -7.97%.
In the case of `COc1cccc(CNC(=O)Cn2nc(-c3ccc(C)cc3)ccc2=O)c1`, the activation is reported as inactive: -10.9%.
`CCCNC(=O)C1CCN(C(=O)N2CC(C)Oc3ccccc32)CC1` (stereo not drawn) was tested, and the activation was inactive: -14.2%.
In the case of `CCn1ccc2cc(S(=O)(=O)N3CCCN(C(=O)Nc4cccc(SC)c4)CC3)ccc21`, the activation is reported as inactive: -7.46%.
With `Cc1ccc(NC(=O)Cn2cc(C(=O)c3ccco3)c3ccccc32)cc1C` the activation was inactive: 0.498%.
In the case of `COc1ccc(-n2ccnc2SCC(=O)Nc2cccc(OC)c2)cc1`, the activation is reported as inactive: -12.4%.
With `O=C1NC(=O)c2cc(Nc3ccccc3)c(Nc3ccccc3)cc21` the activation was inactive: -11.4%.
`Cc1ccc(CNC(=O)C2CCC(CNS(=O)(=O)c3ccc(C)cc3)CC2)cc1` (stereo not drawn) was tested, and the activation was inactive: -3.83%.
For `CCCCN(C)S(=O)(=O)c1ccc(NC2=NS(=O)(=O)c3ccccc32)cc1`, the activation was inactive: 3.23%.
`Cc1ccc(NC(=O)CSc2nc3ccccc3c(=O)n2CCC(=O)NC2CCCCC2)cc1C` was tested, and the activation was inactive: 7.3%.
For `CCOc1ccccc1NC(=O)c1cc2cc3cc(C)ccc3nc2s1`, the activation was inactive: -8.97%.
With `COc1ccc(-n2c(SCC(=O)NCc3ccco3)nc3c([nH]c4ccccc43)c2=O)cc1` the activation was inactive: 40.4%.
With `CCOC(=O)c1cc2c(=O)n3ccccc3nc2n(Cc2ccco2)c1=NC(=O)c1cccc(C)c1` the activation was inactive: -34.3%.
With `CCCNC(=O)CSc1c2c(nc3ccc(Cl)cc13)CCCC2` the activation was inactive: -12.9%.
In the case of `CCCn1c2ccccc2c2cnn(CC(=O)N(CC)c3cc(C)ccc3C)c(=O)c21`, the activation is reported as inactive: -17.2%.
With `Cc1cccc(N2CCN(C(=O)c3cnn(-c4ccc(F)cc4F)c3C3CCN(C(=O)OC(C)(C)C)CC3)CC2)c1C` the activation was inactive: -17.1%.
For `CCOc1ccc(NC(=O)CC2C(=O)N(c3ccccc3)C(=O)N2C2CCCC2)cc1` (stereo not drawn), the activation was inactive: -0.675%.
For `CCc1ccccc1NC(=O)c1ccc(Cn2nc(N3CCN(c4ccccc4)CC3)ccc2=O)o1`, the activation was active: 63.3%.
With `Cc1cc(=O)n(Cc2ccccc2)c2c1c(C)nn2-c1ccccc1` the activation was inactive: -4.3%.
In the case of `Cc1ccc2oc(=O)c3cnn(CC(=O)N4CCN(c5ccccc5F)CC4)c3c2c1`, the activation is reported as inactive: 8.86%.
With `Cc1ccc(C2C=C(c3ccccc3)Nc3nc(NS(=O)(=O)c4ccc(C)cc4)nn32)cc1` (stereo not drawn) the activation was active: 93.9%.
With `Cc1cccc(N2CCN(C(=O)C3CCN(S(=O)(=O)c4c(C)noc4/C=C/c4ccccc4F)CC3)CC2C)c1` (stereo not drawn) the activation was inactive: -14.3%.
For `Cc1ccc(NC(=O)Nc2cn(C)c(=O)c3ccccc23)c(Cl)c1`, the activation was inactive: -54.1%.
With `Cc1nc2c3ccccc3nc(NNC(=O)CCC(=O)N3CCN(c4cc(Cl)ccc4C)CC3)n2n1` the activation was inactive: -29.9%.
With `COCc1cc(C)nc2sc(C(=O)Nc3ccc(C(C)=O)cc3)c(N)c12` the activation was inactive: 33%.
In the case of `COc1ccc(OCC(=O)Nc2cccc(C(=O)OCc3cc(=O)n4nc(C)sc4n3)c2)cc1`, the activation is reported as inactive: -14.1%.
In the case of `COc1cccc(NC(=O)c2sc3nc(C)c(C(=O)Nc4ccc(C)cc4C)c(-c4ccco4)c3c2N)c1`, the activation is reported as inactive: -1.78%.
In the case of `CCc1cccc(NC(=O)CSc2nc3ccccc3nc2N2CCCCC2)c1`, the activation is reported as inactive: -10.1%.
In the case of `CNC(=O)CCCN1C(=O)CCn2nc(-c3cn(C)c4ccccc34)cc21`, the activation is reported as inactive: -1.21%.
`CCOC(=O)c1c(NC(=O)/C=C/c2ccc(OCC)cc2)sc(C(C)=O)c1C` was tested, and the activation was inactive: -3.42%.
For `Cc1nn(-c2ccccc2)c2sc(C(=O)Nc3cccc(Cl)c3)cc12`, the activation was inactive: -2.65%.
With `COc1cc2nc(NCCc3ccccc3)n3nc(-c4cccnc4)nc3c2cc1OC` the activation was inactive: -4.78%.
For `COC(=O)c1ccc2c(=O)n(CCCCCC(=O)N3CCN(c4cc(C)ccc4C)CC3)c(=O)[nH]c2c1`, the activation was inactive: -10.9%.
In the case of `CCC(=O)N1CCc2cc(CNS(=O)(=O)c3ccc(C(C)C)cc3)ccc21`, the activation is reported as active: 109%.
`Cc1ccc(C)c(N2CCN(C(=O)CCS(=O)(=O)c3cc(Br)cc4c3N(C(=O)C3CC3)CC4)CC2)c1` was tested, and the activation was inactive: -18.4%.
In the case of `COc1ccc(CNC(=O)C(Cc2ccccc2)NS(=O)(=O)c2ccc3c(c2)CCN3C(C)=O)cc1` (stereo not drawn), the activation is reported as inactive: 11.8%.
For `COc1cc(NC(=O)CCc2c(C)nc3c(-c4ccc(F)cc4)c(C)nn3c2C)cc(OC)c1OC`, the activation was inactive: -11.6%.
